Measurements as given in PubChem BioAssay AID624202 (National Center for Advancing Translational Sciences (NCATS), 2012).
Several values for one entry are separate records, joined by “and”; a condition that tells them apart may be missing. Equal values may be shown once. Hit rate of the full screen: of about 380,000 compounds, about 4,000 (1.1%) were called active. The shares of active, inactive and inconclusive entries below differ from those in the screen. The call rests on the fitted dose curve; in most records, active means well fitted activation curve with a large enough effect; inconclusive means small, poorly fitted or top-dose-only effect; inactive means no such curve, though single readings can be large or run the other way. Potencies beside an inconclusive call are fits to weak or partial responses and may not hold up.

assay: qHTS Assay to Identify Small Molecule Activators of BRCA1 Expression; conditions: MCF7-BRCA1-FFLuc reporter, luminescence, 48 h; activation: at 46.1 µM (top of the series), scaled: vehicle 0%, 10 µM genistein 100% unless noted; further: nearly all actives have a fitted effect of over 80% in size
How it was run: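 Activators of BRCA1 expression were detected as increased firefly luciferase luminescence in engineered MCF7 cells after 48 h compound incubation. Signals were scaled to genistein 10 microM as full activation.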
Potency means the concentration at half of the fitted maximal effect; tags describe the fitted curve by direction and shape.

SMILES | Potency | activation
Cc1cc(C(=O)CSc2nnc(N)s2)c(C)n1C1CC1 | active: 7.94 µM | 
C=CCc1cccc(CNc2nc3ccccc3n2C(C)C)c1O | inactive | 
Nc1c(C(=O)Nc2ccc3c(c2)OCCO3)nnn1Cc1ccc(F)cc1 | active: 8.91 µM | 
Cc1ccc(OCc2cc(C(=O)N3CCC(c4ccccc4Cl)C3)no2)cc1C (configuration not stated) | inconclusive: 12.6 µM [activator, partial curve, poor fit] | 
Cc1cc(OCc2cc(C(=O)NC(C)c3c(C)nn(C)c3C)no2)cc(C)c1Cl (configuration not stated) | inconclusive: 2.24 µM [activator, partial curve, poor fit] | 
Nc1nc(SCc2ccc3c(c2)OCCO3)n[nH]1 | inconclusive: 12.6 µM [activator, partial curve, poor fit] | 
CCCN=C(C)C1=C(O)c2ccccc2C1=O | inconclusive: 7.94 µM [activator, partial curve, poor fit] | 
Cn1c(NC(=O)CCC2CCCCC2)cc(=O)n(C)c1=O | active: 2.24 µM | 
CCN1C(=O)/C(=C\N2CCCc3ccccc32)SC1=S | inactive | 
c1ccc2nc(-c3ccc4c(c3)OCO4)ccc2c1 | inconclusive: 1.58 µM [activator, partial curve, poor fit] | 
CC12CC(NC(=O)N1c1cccc(C(=O)N3CCN(c4ccccc4)CC3)c1)c1ccccc1O2 (configuration not stated) | inactive | 
COc1ccc(C(CC(=O)c2ccc(O)cc2)S(=O)(=O)c2ccc(C)cc2)cc1 (configuration not stated) | inconclusive: 35.5 µM [activator, single point] | 
CN(Cc1ccccc1)C(=O)C(C(=O)c1ccc(F)cc1)n1cc(Cl)ccc1=O (configuration not stated) | inconclusive: 12.6 µM [activator, partial curve, poor fit] | 
COCCN(Cc1ccccc1)C(=O)c1cccc(S(=O)(=O)N2CCN(c3ccccc3)CC2)c1 | inactive | 
O=C(O)c1ccc(Nc2nc(-c3ccccc3)cs2)cc1 | inconclusive: 3.16 µM [activator, partial curve, poor fit] | 
CCCCOC(=O)Nc1nc2ccc(OC)cc2s1 | inconclusive: 15.8 µM [activator, partial curve, poor fit] | 
Cc1cccc(NC(=O)CCN2CCN(C/C=C/c3ccccc3)CC2)c1 | inactive | 
CCOc1cc(/C=N/Nc2ccc(C(=O)O)cc2)ccc1OC(=O)c1ccccc1C | inconclusive: 2.82 µM [activator, partial curve, poor fit] | 
CCN(CC)C(=O)CSc1ncnc2sc(-c3ccccc3)cc12 |  | inactive: 8.8% [at 1.84 µM, scaled: vehicle 0%, 10 µM genistein 100%]
N#Cc1c(/N=C/N2CCOCC2)sc2c1CCCCC2 | inconclusive: 2.24 µM [activator, full curve, poor fit] | 
CCOC(=O)c1c(C)oc2ccc(OC(=O)COc3c(F)c(F)c(F)c(F)c3F)cc12 | inconclusive: 35.5 µM [activator, single point] | 
CC(C)(C)C(=O)c1cnc(Nc2ccccc2Cl)s1 | inconclusive: 1.78 µM [activator, full curve, poor fit] | 
CC(=O)Nc1ccc2c(c1)Cc1c(F)cccc1-2 | inconclusive: 0.631 µM [activator, full curve, poor fit] | 
CC(O)CNc1nc2c(c(=O)n(Cc3ccccc3)c(=O)n2C)n1C (configuration not stated) | inactive | 
NC(=O)CSc1nnc(-c2ccoc2)o1 | inactive | 
CN1CCSc2ccc(C(=O)Nc3cc(F)ccc3F)cc21 | active: 12.6 µM | 

SMILES | Potency | activation
CCN=C(Nc1ccc2c(c1)OCO2)SC1CC(=O)N(c2ccc(OC)cc2)C1=O (configuration not stated) | inactive | 
CCOC(=O)c1c(NC(=O)c2ccccc2C)sc2c1CC(C)(C)OC2 | inactive | 
Cc1cc2oc(=O)cc(CN(C)Cc3cccc(F)c3)c2cc1C | active: 11.2 µM | 
COc1ccc(NC(=O)Nc2cccs2)cc1OC | inactive | 
Cc1cc(NC(=O)c2ccco2)sc1C | inconclusive: 4.47 µM [activator, full curve, poor fit] | 
Cc1ccc(OCc2cc(C(=O)N3CCCCCCC3)no2)cc1C | inconclusive: 35.5 µM [activator, single point] | 
Cc1ccc(NC(=S)N/C(=N/S(=O)(=O)c2ccccc2)c2ccccc2)cc1 | active: 10 µM and active: 12.6 µM | 
O=C(Nc1ccc([N+](=O)[O-])cc1)OCCc1ccccn1 | active: 2.82 µM | 
O=C(Nc1ccc(Cl)cc1)C1C2CCCCC21 (configuration not stated) | active: 2.24 µM | 
O=C(Nc1nsc(-c2ccccc2)n1)c1ccc(F)cc1 | active: 11.2 µM | 
Clc1ccc(-c2nc3ccncc3[nH]2)cc1 | inconclusive: 10 µM [activator, partial curve, poor fit] | 
C/C(=N\OCC(=O)Nc1ccccc1C(=O)O)c1cccs1 | active: 11.2 µM | 
CCOC(=O)c1c(NC(=O)Nc2ccc(Cl)cc2)sc(C)c1C | inactive | 
Cc1cc(NC(=O)c2ccc(C(C)(C)C)cc2)no1 | inconclusive: 17.8 µM [activator, partial curve, poor fit] | 
Cc1ccc(COc2ccc(-c3nnco3)cc2)cc1 | inconclusive: 2 µM [activator, full curve, poor fit] | 
Cc1cc(C)n(-c2nc3ccccc3nc2Nc2cccc(C(F)(F)F)c2)n1 | inactive | 
COc1ccccc1NC(=O)COc1ccc(CO)cc1Cl | inconclusive: 12.6 µM [activator, partial curve, poor fit] | 
O=C1CC(N2CCC(c3nc4ccccc4s3)CC2)C(=O)N1Cc1ccccc1 (configuration not stated) |  | inactive: 5.9% [at 1.84 µM, scaled: vehicle 0%, 10 µM genistein 100%]
CCOc1ccc(S(=O)(=O)NCC(=O)OCc2nnc(-c3ccccc3)o2)cc1 | inactive | 
S=C(Nc1ccc(Cl)cc1Cl)NC1CCCCC1 | inconclusive: 12.6 µM [activator, partial curve, poor fit] | 
O=C(CCc1nnc(CCCc2ccccc2)o1)NCCCC1CCCC1 | active: 12.6 µM | 
O=C(Nc1ccc2c(c1)OCCO2)c1cnc2n(c1=O)CCS2 | active: 7.08 µM | 
CS(=O)(=O)N1CCCCC1c1cc(C(=O)Nc2ccccc2)no1 (configuration not stated) | inconclusive: 1.41 µM [activator, partial curve, poor fit] | 
NC(=O)c1ccsc1NC(=O)COC(=O)c1c(F)cccc1Cl | inconclusive: 14.1 µM [activator, partial curve, poor fit] | 
COc1ccc(CSC(=N)N)cc1[N+](=O)[O-] | inactive | 
CC(C)CCNc1c(-c2cccs2)nc2ccccn12 | inactive | 

SMILES | Potency | activation
Fc1ccc(-c2cnn3c(-c4ccncc4)ccnc23)cc1 |  | inconclusive: 115% [activator]
C/C(=N\Nc1nc2ccccc2s1)c1ccc(Br)s1 | inactive | 
O=C(CSc1nccn1-c1ccccc1)c1ccc(Br)cc1 | inconclusive: 22.4 µM [activator, single point] | 
CCOc1ccc(N(CC(=O)Nc2ccc(OC)cc2)S(C)(=O)=O)cc1 | inconclusive: 11.2 µM [activator, partial curve, poor fit] | 
COc1ccccc1NS(=O)(=O)c1cc([N+](=O)[O-])ccc1N/N=C/c1sc(N2CCOCC2)nc1-c1ccccc1 | inactive | 
CCOc1cccc(C(=O)NC(=S)Nc2ccccc2)c1 | active: 11.2 µM | 
Cn1cnc2c1c(=O)n(Cc1ccc(F)cc1Cl)c(=O)n2C | inactive | 
COc1cccc(NC(=O)NC2CCCCCCC2)c1 | active: 10 µM | 
O=C(Nc1ccc(CN2CCOCC2)cc1)c1cccc(F)c1 | inconclusive: 2.51 µM [activator, full curve, poor fit] | 
CCn1c2ccccc2c2cc(NC(=O)C(=O)N3CCOCC3)ccc21 | inconclusive: 11.2 µM [activator, partial curve, poor fit] | 
COC(=O)C1=C(O)/C(=C\c2cc(C)n(-c3ccccc3C)c2C)N=C1C | inconclusive: 17.8 µM [activator, partial curve, poor fit] | 
O=S(=O)(Nc1ccc(-n2cccc2)cc1)c1ccccc1 | inactive | 
O=C1NC(=O)/C(=C/c2ccc(O)cc2)S1 | inconclusive: 14.1 µM [activator, partial curve, poor fit] | 
O=C(OCC(=O)N1CCOCC1)c1ccccc1Cc1ccccc1 | active: 2 µM | 
Cc1cc(N2CCN(C)CC2)nc2ccc(NC(=O)c3ccccc3F)cc12 | active: 11.2 µM | 
CC(C)NC(=O)c1ccc(Cl)cc1Cl | inconclusive: 31.6 µM [activator, single point] | 
Nn1c(SCc2ccccc2F)nnc1-c1ccccn1 | inconclusive: 2.24 µM [activator, full curve, poor fit] | 
Cc1ccc(NC(=O)NC2CCCCC2)cc1Cl | active: 5.01 µM | 
Cc1ccc(C(=O)COC(=O)c2cccs2)cc1 | inconclusive: 10 µM [activator, partial curve, poor fit] | 
Cn1c(SCC(=O)c2ccccc2)nnc1-c1cccs1 | active: 10 µM | 
Cc1ccc(NC2CCCN(C(=O)CN3C(=O)c4ccccc4C3=O)C2)cc1C (configuration not stated) | inactive | 
COc1ccc2nc(Nc3ccc4c(c3)OCO4)sc2c1 | inconclusive: 2.51 µM [activator, full curve, poor fit] | 
O=C(CC1CCCCC1)NCCS(=O)(=O)N1CCN(c2ccccc2)CC1 | inactive | 
O=C(c1ccc(-c2cccc(C(F)(F)F)c2)o1)N1CCOCC1 | active: 11.2 µM | 
COc1ccc(NC(=O)CN2CCN(C3c4ccccc4-c4ccccc43)CC2)c(OC)c1 | inactive | 
